This passage reports cytotoxicity call and growth inhibition call results from the antibiotic and cytotoxicity screens of Wong et al. (2023).

The other results are listed elsewhere or left out.

Test [1] relates to HSkMC (human skeletal muscle cells). Description: cytotoxicity call (relative viability < 0.9). Conditions: 10 µM.
Test [2] deals with HepG2. Description: cytotoxicity call (relative viability < 0.9). Conditions: 10 µM.
The test system of test [3] is S. aureus RN4220. Nature of the test: growth inhibition call (relative growth <= 0.2). The note with it: 50 µM.

Consider `Cc1noc(C)c1NC(=O)Nc1ccc2c(c1)C(=O)N([C@H](C)CO)C[C@H](C)[C@@H](CN(C)C(=O)c1ccccc1)OCCCC[C@H](C)O2`, for which the cytotoxicity call in test [1] and in test [2] was “inactive” each time. For the same compound, the growth inhibition call in test [3] is “inactive”.

With `C[C@H](CO)N1C[C@H](C)[C@@H](CN(C)Cc2ccncc2)Oc2ccc(NS(=O)(=O)c3ccc(F)cc3)cc2CC1=O`, the cytotoxicity call in test [1] and in test [2] was “inactive” each time. For the same compound, in test [3], the growth inhibition call was “inactive”.

With `COc1ccc(NC(=O)Nc2ccc3c(c2)C(=O)N([C@@H](C)CO)C[C@H](C)[C@H](CN(C)S(=O)(=O)c2cccs2)OCCCC[C@H](C)O3)cc1`, the cytotoxicity call in test [1] and in test [2] was “inactive” in each case. In addition, the growth inhibition call in test [3] is “inactive”.

Turning to `Cc1noc(C)c1NC(=O)Nc1ccc2c(c1)C(=O)N([C@@H](C)CO)C[C@H](C)[C@@H](CN(C)Cc1ccc(Cl)c(Cl)c1)OCCCC[C@@H](C)O2`, the cytotoxicity call in test [1] was “inactive”. Moreover, the cytotoxicity call in test [2] is “active”. Also, the growth inhibition call in test [3] is “inactive”.

Turning to `COCC(=O)N(C)C[C@H]1Oc2cc(C#C[C@H](C)O)ccc2S(=O)(=O)N([C@@H](C)CO)C[C@@H]1C`, the cytotoxicity call in test [1] and in test [2] was “inactive” each time. In addition, in test [3], the growth inhibition call was “inactive”.

Regarding `C[C@@H]1CCCCO[C@H](CN(C)C(=O)Nc2ccc(C(F)(F)F)cc2)[C@@H](C)CN([C@@H](C)CO)C(=O)c2cc(NC(=O)Nc3cccc4ccccc34)ccc2O1`, the cytotoxicity call in test [1] and in test [2] was “inactive” in each case. In addition, the growth inhibition call in test [3] was “inactive”.

In the case of `CO[C@@H]1CN(C)C(=O)c2cc(NS(C)(=O)=O)ccc2OC[C@@H](C)N(C(=O)CN(C)C)C[C@H]1C`, the cytotoxicity call in test [1] and in test [2] was “inactive” throughout. For the same compound, the growth inhibition call in test [3] was “inactive”.

As for `CCCNC(=O)N[C@H]1C=C[C@H](CC(=O)N2CCN(C)CC2)O[C@@H]1CO`, the cytotoxicity call in test [1] and in test [2] was “inactive” each time. Moreover, the growth inhibition call in test [3] was “inactive”.

As to `C[C@@H]1CN([C@@H](C)CO)C(=O)c2cc(NC(=O)CCN3CCOCC3)ccc2O[C@H]1CN(C)Cc1ccncc1`, the cytotoxicity call in test [1] and in test [2] was “inactive” in each case. Also, the growth inhibition call in test [3] was “inactive”.

`CO[C@H]1CN(C)C(=O)c2ccc(NC(=O)C3CCOCC3)cc2OC[C@H](C)N(Cc2cccnc2)C[C@@H]1C`: the cytotoxicity call in test [1] and in test [2] was “inactive” in each case. In addition, the growth inhibition call in test [3] is “inactive”.

`C[C@H]1CN([C@@H](C)CO)C(=O)Cc2cc(NC(=O)Cn3cnnn3)ccc2O[C@@H]1CN(C)Cc1ccc(C(=O)Nc2ccccc2N)cc1`: the cytotoxicity call in test [1] and in test [2] was “inactive” in each case. For the same compound, in test [3], the growth inhibition call is “inactive”.

Turning to `C[C@@H]1CN([C@H](C)CO)C(=O)c2cccc(NC(=O)Nc3ccccc3)c2O[C@H]1CN(C)S(=O)(=O)c1cn(C)cn1`, the cytotoxicity call in test [1] and in test [2] was “inactive” each time. Further, the growth inhibition call in test [3] was “inactive”.

In the case of `CN1C(=O)c2cc(NS(=O)(=O)c3cccc(F)c3)ccc2OC[C@H]2O[C@H](CC(=O)NCCN3CCCCC3)CC[C@H]21`, the cytotoxicity call in test [1] and in test [2] was “inactive” in each case. Moreover, the growth inhibition call in test [3] is “inactive”.

As to `C=CC[C@H](CC(=O)NCCO)C(=O)N[C@@H](COC(=O)[C@H](CC=C)CC(=O)OC(C)(C)C)Cc1c[nH]c2ccccc12`, the cytotoxicity call in test [1] and in test [2] was “inactive” in each case. In addition, the growth inhibition call in test [3] is “inactive”.

With `COC(=O)[C@H](Cc1ccc(-n2cc(C(=O)NO)nn2)cc1)N[C@H](/C=C/C1CC1)[C@@H](O)Cc1ccccc1`, the cytotoxicity call in test [1] and in test [2] was “inactive” throughout. Besides, the growth inhibition call in test [3] was “inactive”.

In the case of `C[C@H]1CN([C@@H](C)CO)C(=O)c2cc(NC(=O)Cn3cnnn3)ccc2O[C@H]1CN(C)C(=O)NC1CCCCC1`, the cytotoxicity call in test [1] and in test [2] was “inactive” throughout. Moreover, the growth inhibition call in test [3] is “inactive”.

Regarding `C[C@@H]1CCCCO[C@H](CN(C)Cc2ccc(C(F)(F)F)cc2)[C@@H](C)CN([C@H](C)CO)C(=O)c2cc(NC(=O)Nc3ccc(C(F)(F)F)cc3)ccc2O1`, the cytotoxicity call in test [1] was “inactive”. Further, the cytotoxicity call in test [2] was “active”. In addition, the growth inhibition call in test [3] is “inactive”.

Turning to `C[C@@H]1CN([C@@H](C)CO)C(=O)c2cccc(NC(=O)Nc3ccccc3)c2O[C@@H]1CN(C)Cc1ccc(-c2ccccc2)cc1`, the cytotoxicity call in test [1] and in test [2] was “active” each time. The growth inhibition call in test [3] is “inactive”.

As for `Cc1ccc(S(=O)(=O)N(C)C[C@H]2Oc3ccc(NS(=O)(=O)c4ccc(F)cc4)cc3CC(=O)N([C@H](C)CO)C[C@H]2C)cc1`, the cytotoxicity call in test [1] and in test [2] was “inactive” in each case. For the same compound, the growth inhibition call in test [3] was “inactive”.

Regarding `C[C@H]1CN([C@@H](C)CO)C(=O)Cc2cc(NC(=O)c3ccncc3)ccc2O[C@H]1CN(C)C(=O)NC1CCCCC1`, the cytotoxicity call in test [1] and in test [2] was “inactive” each time. Besides, the growth inhibition call in test [3] is “inactive”.

As to `C[C@H]1CN([C@@H](C)CO)C(=O)c2cc(-c3ccc(F)cc3)cnc2O[C@@H]1CN(C)C(=O)Cc1ccccn1`, the cytotoxicity call in test [1] and in test [2] was “inactive” in each case. In addition, the growth inhibition call in test [3] was “inactive”.

Turning to `O=C(C[C@@H]1C[C@@H]2c3cc(NC(=O)c4ccc5c(c4)OCO5)ccc3O[C@@H]2[C@H](CO)O1)NCc1ccc(Oc2ccccc2)cc1`, the cytotoxicity call in test [1] and in test [2] was “active” each time. In test [3], the growth inhibition call is “inactive”.

For `C[C@H](CO)N1C[C@H](C)[C@@H](CN(C)C(=O)Cc2ccccc2)Oc2cc(-c3cncnc3)ccc2S1(=O)=O`, the cytotoxicity call in test [1] and in test [2] was “inactive” each time. Also, the growth inhibition call in test [3] was “inactive”.

In the case of `C[C@H]1CN([C@@H](C)CO)C(=O)CCCn2cc(nn2)CO[C@@H]1CN(C)S(=O)(=O)c1cccc(C#N)c1`, the cytotoxicity call in test [1] and in test [2] was “inactive” each time. In test [3], the growth inhibition call was “inactive”.

For the compound `C#CC1(O)CCC2C3CCC4=Cc5oncc5CC4(C)C3CCC21C` (stereo unspecified), the cytotoxicity call in test [1] and in test [2] was “inactive” in each case. In addition, the growth inhibition call in test [3] was “inactive”.

For `C[C@@H]1CN([C@H](C)CO)C(=O)c2cccc(NC(=O)Nc3cccc4ccccc34)c2O[C@@H]1CN(C)C(=O)Nc1cccc2ccccc12`, the cytotoxicity call in test [1] and in test [2] was “inactive” in each case. In addition, the growth inhibition call in test [3] was “inactive”.

For the compound `C[C@@H]1CCCCO[C@@H](CN(C)Cc2ccc(C(F)(F)F)cc2)[C@@H](C)CN([C@H](C)CO)C(=O)c2cc(NC(=O)C3CCCCC3)ccc2O1`, the cytotoxicity call in test [1] and in test [2] was “inactive” each time. Besides, in test [3], the growth inhibition call is “inactive”.
